Data as given in PubChem BioAssay AID1508623 (National Center for Advancing Translational Sciences (NCATS), 2021).
Screen size: about 48,000 compounds; about 450 (0.94%) were called active. About 19% were inconclusive and are not listed. Calls come from the whole dose curve; as a rule, active = well fitted inhibition curve with a large enough effect; inconclusive = small, poorly fitted or top-dose-only effect; inactive = no such curve, though single readings can be large or run the other way. The list shows a part of the results.

test: Primary qHTS for Identification of Small Molecule Inhibitors of Huntingtin Promoter Activity; conditions: HEK293 HTT promoter firefly luciferase reporter (activity 0% = vehicle and -100% = no light), 24 h; series mostly up to 57.5 µM; activity change, negative = inhibition: at the top concentration; note: nearly all actives have a fitted effect of over 50% in size
Method in brief: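 HEK293 luciferase promoter-reporter cells (2,500/well) plated 24 h, then compounds added at up to 57.5 uM final for 24 h at 37 °C. Firefly luminescence by Dual-Glo, normalized to vehicle (0%) and zero RLU (-100%).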

Activity change, negative = inhibition, inactive:
CCN(CC)C(=O)C1CCCN(c2ncnc3c2nc2n3CCCCC2)C1 (stereo not drawn) -12.7%
COc1ccc(CCNC(=O)c2cc3c(=O)[nH]c4ccc(C)cc4c3s2)cc1OC -16.4%
COC(=O)c1ccccc1NC(=O)CCCS(=O)(=O)c1nc(-c2ccccc2OC)cc(C(F)(F)F)n1 3.15%
CCOc1ccccc1CNC(=O)CN1C(=O)C2CCCCN2c2ccc(C(=O)N(C)C)cc21 (stereo not drawn) -7.94%
CCOc1ccc(OCC)c(NC(=O)c2c(C)nn(-c3ccccc3)c2-n2cccc2)c1 -27.4%
COc1ccc(CCCc2nnc(SCC(=O)Nc3ccc(Cl)cc3)o2)cc1 -6.94% [at 11.5 µM]
Cc1nn(C)c2c1c(C(F)(F)F)cc(=O)n2CC(=O)NC(C)(C)C -4.55%
CCc1ccccc1NC(=O)c1ccc2[nH]c(C)c(C)c2c1 54%
CCc1ccc(CNC(=O)c2sc3ncnc(N(C)C4CCCCC4)c3c2C)cc1 -28.6%
COc1ccc(-c2cc(-c3ccc(F)cc3)nc3c2COc2ccccc2-3)cc1 -14.1%
CCOc1ccccc1C1Nc2ccccc2-c2nnc(SCc3ccccc3)nc2O1 (stereo not drawn) -3.3%
Cc1c(C(=O)NCc2ccccc2)oc2c1-c1[nH]ncc1CC2 14.5%
CCCN(C(=O)Cn1nc(Cc2ccncc2)c2ccccc2c1=O)c1ccccc1C -21.9%
CCOc1ccc(-c2nnc(SCC(=O)NCCc3ccccc3)nc2-c2ccc(OCC)c(OC)c2)cc1OC 5.21%
COc1ccc(Br)cc1CNC(=O)c1ccc(-n2c(C)cc3c2CCC(C)C3)cc1 (stereo not drawn) -3.72%
Cc1cc(O)c(CN2CCN(c3ccc(F)cc3)CC2)c2oc(=O)cc(C)c12 -22.6%
CCOc1ccc(CCNC(=O)c2nn(-c3ccc(OC)cc3)c(=O)c3c2c2ccccc2n3C)cc1OCC -14.8%
Cc1ccc2[nH]c3c(=O)n(CC(=O)N(C)Cc4ccccc4)ncc3c2c1 -3.71%
CCN(CC)C(=O)c1ccccc1NC(=O)c1cccc(S(=O)(=O)N2CCC(C)CC2)c1 -22.6%
COc1cccc(CNC(=O)c2ccc(CS(=O)Cc3ccc(Cl)cc3)o2)c1 (stereo not drawn) -21.7%
N#Cc1cc2c(=O)n3ccccc3nc2n(-c2nnc(SCc3ccccc3)s2)c1=O -7.03%
Cc1ccc(C(=O)CSc2nnc3ccc4ccccc4n23)cc1 6.41%
Cc1ccc(CNC(=O)C2CCN(c3ncnc4c3nc3n4CCCCC3)CC2)cc1 7%
Cc1ccccc1CNC(=O)c1ccc2c(c1)N(Cc1ccccc1)CCS2 -9.3%
O=C(CCCn1c(=O)c2cccn2c2cccnc21)Nc1ccccc1Br 3.33%
O=c1oc2ccc3ccccc3c2cc1-c1nnc(Nc2cccc(F)c2)s1 33.6%
CCN1CCOC(=O)C1CC(=O)Nc1cc(Cl)ccc1OC (stereo not drawn) -4.72%
Oc1ccc(C=Cc2cc(O)cc(O)c2)cc1 19.9%
CCCCn1c(=O)c2oc3ccccc3c2n(CC(=O)Nc2ccccc2OC)c1=O 1.03%
CCOC(=O)c1c(NC(=O)/C=C/c2ccc(OCC)cc2)sc2c1CCC2 -4.81%
Cc1ccc(CNC(=O)Cn2cc(C(=O)c3ccc(Cl)cc3)c(=O)c3ccc(C)nc32)cc1 7.75%
CCCCNC(=O)[C@@H](c1ccccc1)N1Cc2ccccc2C1=O -14.6%
O=C(CCn1c(=O)c2cccn2c2cccnc21)N1CCN(c2ccc(Cl)cc2)CC1 -12.2%
CNc1oc(/C=C/c2cc(OC)c(OC)c(OC)c2)nc1C#N 17.4%
CCOc1ccccc1NC(=O)CSc1nccn1Cc1ccc(F)cc1 -28.2%
O=C(OCC1CCCO1)c1ccc2c(c1)N(Cc1ccccc1F)C(=O)c1ccccc1S2(=O)=O (stereo not drawn) 3.29%
Cc1cccc(CNC(=O)c2cnc3sc(N4CCOCC4)nn3c2=O)c1 10.7%
Cc1sc2ncn(CC(=O)N(C)c3ccc(Br)cc3)c(=O)c2c1S(=O)(=O)N1CCC(C)CC1 7.11%
Cc1cccc(NC(=O)c2c(C)oc3ncn(CC(C)C)c(=O)c23)n1 0%
CC(=O)N1CCc2cc(S(=O)(=O)CCC(=O)N3CCN(c4cccc(C)c4C)CC3)ccc21 -6.93%
O=C(NCCc1ccccc1)c1cc(-c2ccc(Cl)cc2)on1 3.63%
COc1cccc(NC(=O)Nc2cccc(-c3cn4cccnc4n3)c2)c1 6.66%
CCOc1ccc(-c2nnc(Nc3ccc(S(N)(=O)=O)cc3)c3ccccc23)cc1 -7.72%
CC(C)(C)c1ccc(OCC(=O)N2CCC(c3nc4ccccc4s3)CC2)cc1 -12.6% [at 11.5 µM]
CCCOC1(C(F)(F)F)NC(=O)N(c2ccc(Cl)cc2)C1=O (stereo not drawn) -29.9%
O=C(NC(=O)c1ccc(F)cc1)Nc1ccc(-c2cc(C(F)(F)F)nn2-c2ccccc2)cc1 1.31%
Cc1oc2c(c(C)cc3oc(=O)c(CC(=O)NCCc4ccccc4)c(C)c32)c1C -12.5%
Cc1ccc(NC(=O)Nc2ccc3c(c2)N(C)C(=O)c2ccccc2S3)c(C)c1 5.39%
CCOC(=O)c1c(C)[nH]c(C)c1S(=O)(=O)NCC(=O)Nc1cc(C)ccc1OC -5.29%
CCN1CCN(CCCNC(=O)c2cnn(-c3ccccc3)c2C2CCN(C(=O)OC(C)(C)C)CC2)CC1 -2.11%
Cc1ccc(-c2c(CN3CCN(c4cccc(C(F)(F)F)c4)CC3)csc2C)cc1 -11.2%
COc1cccc(C2C=C(c3ccc(C)c(C)c3)Nc3nnnn32)c1OC (stereo not drawn) -23.1%
O=C(O)CCCC[C@@H]1SC[C@@H]2NC(=O)N[C@@H]21 24%
CN1CCN(c2cc3c(cc2F)c(=O)c(C(=O)O)cn3-c2ccc(F)cc2)CC1 3.05%
COc1cc(NC(=O)c2ccc(C)cc2)ccc1NC(=O)c1cc2ccccc2o1 10.1%
Cc1ccc(C)c(CN2C(=O)C(=O)c3ccccc32)c1 -24%
COCC(=O)Nc1c(I)c(C(=O)NCC(O)CO)c(I)c(C(=O)N(C)CC(O)CO)c1I (stereo not drawn) 5.46%
O=C(NCCc1ccccc1)c1ccc(CS(=O)(=O)c2ccc(Br)cc2)o1 -12.5%
Cc1cc2nn(-c3ccccc3)nc2cc1NC(=O)c1cccc2c(Cl)cccc12 6.76%
CCSc1nnc2n(-c3cccc(C)c3)c(=O)c3c4c(sc3n12)CCCC4 -6.91%
Cc1coc2ccccc2c1=O 2.02%
Cc1ccc2onc(CNC(=O)N3CCN(c4cccc(C)c4C)CC3)c2c1 -47.3%
CCN(CCCNC(=O)Cn1ncc2c([nH]c3ccc(C)cc32)c1=O)c1cccc(C)c1 1.3%
